Assays:
[1] = system: human peripheral blood mononuclear cells (PBMC); assay: IFNγ ELISPOT of human PBMC with epitope peptides; type: cell-based; details: CD105 and HIF1α peptides
Source text: (§1) A plurality of immunological assays may be used with the methods or processes described herein to test at least one peptides of putative epitopes or nucleic acids encoding peptides of putative epitopes to determine if the peptide of the putative epitope elicits an immune response, often the sub-type of the immune response may be determined, often the immunologic assay may be an ELISPOT assay, an ELISA assay, a multiplex assay or the like. For example, a suitable immunologic assay may include performing an ELISPOT assay using cells derived from donors. […] The amount of at least one cytokine production in cells following administration of the peptides of putative epitopes may be determined by the ELISPOT assay. […]
(§2) […] peptides, predicted to bind promiscuously to human MHCII, were selected using web-based algorithms according to the methods described herein. Peripheral blood mononuclear cells (PBMC) from 20 female breast cancer patients were cryopreserved and evaluated by ELISPOT for antigen specific IFNγ or IL-10 secretion, according to our published methods. […] Data is reported as the mean number of spots for each experimental antigen minus the mean number of spots detected in no antigen control wells (corrected spots per well: CSPW). […]

[2] = system: human peripheral blood mononuclear cells (PBMC); assay: IL-10 ELISPOT of human PBMC with epitope peptides; type: cell-based; details: CD105 and HIF1α peptides
Source text: as §1, §2

## LKALDGFVMVLTDDGDMIYISDNVN [HIF1α p 93-117]
[1]
  IFNγ response: strong
[2]
  IL-10 response: no or low

— US20170266269A1, “METHODS OF IDENTIFYING ANTIGENS FOR VACCINES” (UNIVERSITY OF WASHINGTON THROUGH ITS CENTER FOR …, priority 2014, published 2017)
